# Data reported in PubChem BioAssay AID504845 (National Center for Advancing Translational Sciences (NCATS), 2011).
# About 150 (0.038%) of roughly 390,000 compounds were called active. Inconclusive results, whose numbers are uncertain, are shown with a selection of clear calls. Calls follow the shape of the dose curve; as a rule, active = well fitted inhibition curve with a large enough effect; inconclusive = small, poorly fitted or top-dose-only effect; inactive = no such curve, though single readings can be large or run the other way. A potency beside an inconclusive call is a rough fit, not a confirmed value.
# Biological target: Regulator of G-protein signaling 4 (Homo sapiens) (UniProt P49798)
# UniProt P49798, sequence (P49798 whole entry, looked up): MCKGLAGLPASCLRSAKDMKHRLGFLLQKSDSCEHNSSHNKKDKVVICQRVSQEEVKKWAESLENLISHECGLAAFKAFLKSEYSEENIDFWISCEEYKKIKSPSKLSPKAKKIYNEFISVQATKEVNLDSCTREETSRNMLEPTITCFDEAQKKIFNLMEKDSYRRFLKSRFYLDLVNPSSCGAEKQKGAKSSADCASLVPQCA
# Assay: Inhibitors of Regulator of G Protein Signaling (RGS) 4: qHTS; also: nearly all actives have a fitted effect of over 75% in size
# Conditions: Transcreener GDP fluorescence polarization, RGS4-accelerated GTP hydrolysis; series mostly up to 114 µM; activity change, negative = inhibition: at the top concentration
# Outline: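 MLSMR compounds (23 nl, pin-transferred) preincubated 10 min at room temperature with a 500nM (2x) first reagent, then RGS4 at 900nM (2x) plus Transcreener GDP mix added; fluorescence polarization (620/688 nm) read before and after 90 min at 30 °C.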
# % is scaled to controls: 0 for no effect and ±100 for the full control effect; potency is read from the fitted curve at half-maximal effect; tags tell the direction and shape of the fitted curve.
Compound,Potency,"activity change, negative = inhibition"
O=C(NCCc1ccccc1Cl)c1ccc(Cn2c(=O)c3cccn3c3cccnc32)cc1,"inconclusive: 44.7 µM [inhibitor, partial curve, poor fit]",
COC(=O)c1cc2c(C)nn(C)c2s1,,inactive: -1.16%
CCN(CC)CCNC(=O)c1ccc(Cn2c(SCc3ccccc3)nc3cccnc32)cc1,,inactive: 0.783%
O=S(=O)(Nc1c(S(=O)(=O)c2ccccc2)c2nc3ccccc3nc2n1C1CCCCC1)c1ccccc1,"inconclusive: 56.2 µM [inhibitor, partial curve, poor fit]",
CC1CCN(C(=S)c2ccc(-c3ccc(Cl)cc3Cl)o2)CC1,"inconclusive: 79.4 µM [inhibitor, partial curve, poor fit]",
CC1(C)CC(NS(=O)(=O)OCC(Cl)(Cl)Cl)c2cc(C#N)ccc2O1 (stereo not drawn),"inconclusive: 39.8 µM [inhibitor, full curve, poor fit]",
Cc1ccc(/C=C2/NC(=O)N(Cc3ccc(Br)cc3)C2=O)o1,"inconclusive: 28.2 µM [inhibitor, full curve, poor fit]",
COc1ccc(N2CCN(C(=O)Cc3coc4cc(C)ccc34)CC2)cc1,"inconclusive: 44.7 µM [inhibitor, partial curve, poor fit]",
Nc1cccnc1Sc1ccc(Cl)cc1,,inactive: -28.9%
NC(=O)c1c(NC(=O)C2CCCO2)sc2c1CCCC2 (stereo not drawn),"inconclusive: 50.1 µM [inhibitor, partial curve, poor fit]",
O=C(CSc1cn(CC(=O)N2CCOCC2)c2ccccc12)Nc1ccccc1F,,inactive: 7.41%
COc1ccc(/C=C(/NC(=O)c2ccccc2)C(=O)NC2CCS(=O)(=O)C2)cc1 (stereo not drawn),"inconclusive: 35.5 µM [inhibitor, partial curve, poor fit]",
CC1CCc2nc3ncn(Cc4ccccc4C#N)c(=O)c3cc2C1 (stereo not drawn),,inactive: 3.12%
Fc1cccc(/C=N/Nc2nncc3ccccc23)c1,"inconclusive: 28.2 µM [inhibitor, full curve, poor fit]",
O=C(NCc1nnc(SCC(=O)N2CCN(c3ccccc3)CC2)o1)c1ccc(F)cc1,"inconclusive: 89.1 µM [inhibitor, single point]",
CN(C)c1ccc(NC(=O)CSc2nc(N)c(C(=O)Nc3ccc(N(C)C)cc3)s2)cc1,"inconclusive: 100 µM [inhibitor, partial curve, poor fit]",
COc1ccc(CN2CCN(Cc3cc(=O)oc4cc(C)ccc34)CC2)c(OC)c1OC,inactive,
Cc1ccc([N+](=O)[O-])c(-c2n[nH]c(=S)n2-c2cccc(Cl)c2)c1,"inconclusive: 79.4 µM [inhibitor, partial curve, poor fit]",
